# Results taken from PubChem BioAssay AID2147 (National Center for Advancing Translational Sciences (NCATS), 2009).
# Several values for one entry are separate records, joined by “and”; a condition that tells them apart may be missing. Equal values may be shown once. Among all 230,000 compounds or so, about 3,600 (1.6%) were called active. This list was built around the results that the source calls inconclusive (neither active nor inactive); the mix of calls is not that of the screen. Calls follow the shape of the dose curve; as a rule, active = well fitted inhibition curve with a large enough effect (not every such curve was filed as active); inconclusive = small, poorly fitted or top-dose-only effect, or another doubt; inactive = no such curve, though single readings can be large or run the other way. Where the call is inconclusive, the potency comes from a doubtful curve fit.
# Target: Lysine-specific demethylase 4E (Homo sapiens) (UniProt B2RXH2)
# Chain of UniProt B2RXH2 (B2RXH2 whole entry, looked up, the tested form may be a part): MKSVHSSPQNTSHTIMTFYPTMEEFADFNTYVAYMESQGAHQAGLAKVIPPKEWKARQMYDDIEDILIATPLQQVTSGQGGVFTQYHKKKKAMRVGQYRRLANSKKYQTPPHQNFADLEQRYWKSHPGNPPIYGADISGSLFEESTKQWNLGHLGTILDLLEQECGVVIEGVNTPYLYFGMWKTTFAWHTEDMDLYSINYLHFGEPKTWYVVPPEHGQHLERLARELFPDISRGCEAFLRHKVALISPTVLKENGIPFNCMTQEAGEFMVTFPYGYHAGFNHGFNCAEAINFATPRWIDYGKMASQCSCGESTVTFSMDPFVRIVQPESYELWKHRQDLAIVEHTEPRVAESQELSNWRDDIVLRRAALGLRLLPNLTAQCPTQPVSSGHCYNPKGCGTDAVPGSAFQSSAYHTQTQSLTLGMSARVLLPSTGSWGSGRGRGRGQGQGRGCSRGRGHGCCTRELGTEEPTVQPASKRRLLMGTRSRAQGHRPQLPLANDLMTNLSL
# Experiment: qHTS Assay for Inhibitors of Human Jumonji Domain Containing 2E (JMJD2E)
# Conditions: JMJD2E catalytic domain, FDH-coupled NADH fluorescence (FDH is formaldehyde dehydrogenase); series mostly up to 57.1 µM
# Also: nearly all actives have a fitted effect of over 50% in size.
# Potency is read from the fitted curve at half-maximal effect; tags tell the direction and shape of the fitted curve.
row,Compound,Potency
1,CCCCn1nc2cc(C(=O)NCc3ccc(C(F)(F)F)cc3C(F)(F)F)ccc2c1OCC,"inconclusive: 31.6 µM [inhibitor, partial curve]"
2,Cn1c(COc2ccc(Br)cc2)nnc1SC1CCc2ccccc2C1=O (stereo not given),"inconclusive: 31.6 µM [inhibitor, partial curve]"
3,COc1cc2ccccc2cc1C(=O)Nc1ccccc1N1CCN(S(C)(=O)=O)CC1,"inconclusive: 31.6 µM [inhibitor, single point]"
4,C=CCn1nnc2sc3c(c2c1=O)CCC(C)C3 (stereo not given),inactive
5,COc1ccccc1C(=O)NCC(=O)Nc1ccccc1,inactive
6,Nc1cc(-c2ccccc2)ccc1O,"inconclusive: 35.5 µM [inhibitor, single point] and inconclusive: 25.1 µM [inhibitor, partial curve]"
7,O=C(NC(=S)NNC(=O)c1cccs1)c1ccco1,"inconclusive: 39.8 µM [inhibitor, single point]"
8,CC(=O)Nc1ccc(NC(=O)C(C)OC(=O)CCC(=O)c2ccc(F)cc2)cc1 (stereo not given),"inconclusive: 39.8 µM [inhibitor, single point]"
9,c1ccc(-n2c(-c3ccncc3)nnc2-c2cccs2)cc1,"inconclusive: 35.5 µM [inhibitor, single point]"
10,CCN(CC)c1ccc(C(=O)OCC(=O)Nc2cccc(S(=O)(=O)NC3=NCCCCC3)c2)cc1,"inconclusive: 6.31 µM [inhibitor, single point]"
11,O=S(=O)(Nc1ccc(-n2cnnn2)cc1)c1ccc(F)c(F)c1F,inactive
12,COc1cccc(NC(=S)N(CCc2c(C)[nH]c3ccc(C)cc23)Cc2cccs2)c1,inactive
13,CC(C)N(C(=O)COC(=O)c1ccccc1C(=O)c1ccc(Cl)c([N+](=O)[O-])c1)C(C)C,inactive
14,CCc1c(C)nc2cc(-c3ccc(OC)cc3)[nH]n2c1=O,"inconclusive: 28.2 µM [inhibitor, partial curve]"
15,CCOc1ccc(-c2csc(NC(=O)CSCC(=O)O)n2)c2ccccc12,"inconclusive: 22.4 µM [inhibitor, partial curve]"
16,COc1ccc(-c2nc(NC(=O)c3ccc(OCC(=O)Nc4ccc(F)cc4)c(OC)c3)sc2C)cc1,"inconclusive: 22.4 µM [inhibitor, partial curve]"
17,CCOc1ccc(N2C(=O)CC(SCC(=O)O)C2=O)cc1 (stereo not given),inactive
18,CCOc1ccc(C2c3[nH]c4ccccc4c3CCN2CCCn2cccn2)cc1 (stereo not given),"inconclusive: 28.2 µM [inhibitor, single point]"
19,Cn1cc(-c2cccc(Cl)c2)cc(C#N)c1=O,"inconclusive: 25.1 µM [inhibitor, partial curve]"
20,COc1ccc2[nH]c(-c3ccccc3)c(CCNC(C)=O)c2c1,"inconclusive: 31.6 µM [inhibitor, partial curve]"
21,COc1ccc(C2CC(=O)C3=C(C2)Nc2ccccc2N(C(=O)CCC(=O)O)C3c2ccc(F)cc2)cc1 (stereo not given),"inconclusive: 35.5 µM [inhibitor, single point]"
22,COc1ccc(CN2C(=O)Cc3c2nc(N)c2c(N)nc(N4CCCCC4)c(C#N)c32)cc1,active: 14.1 µM
23,COCC(=O)Oc1c(Sc2ccccc2[N+](=O)[O-])c(C)nn1C(C)(C)C,inactive
24,COc1ccc2[nH]c(=O)c(CN(C(C)=O)c3cccc(C)c3)cc2c1,"inconclusive: 31.6 µM [inhibitor, partial curve]"

row,Compound,Potency
1,COc1ccc(Cl)cc1NS(=O)(=O)c1ccc(OC)c(OC)c1,inactive
2,Cc1nc(Nc2ccc3c(c2)OCO3)c2oc3ccccc3c2n1,"inconclusive: 35.5 µM [inhibitor, single point]"
3,O=[N+]([O-])c1cc(S(=O)(=O)C(F)(F)F)ccc1Sc1nc2ccccc2s1,inactive
4,O=C1C(C2=C(O)c3ccccc3C2=O)=Nc2ccccc21,"inconclusive: 39.8 µM [inhibitor, single point]"
5,Clc1nc(Nc2ccc(N3CCOCC3)cc2)c2ccccc2n1,"inconclusive: 35.5 µM [inhibitor, single point]"
6,CC(=O)Nc1ccc(Oc2ccc(-c3noc(C)n3)cc2)cc1,inactive
7,CCCCNC(=O)CCCCCn1c(=O)[nH]c2cc(C(=O)OC)ccc2c1=O,"inconclusive: 11.2 µM [inhibitor, partial curve]"
8,N#Cc1cn(-c2ccccc2)nc1-c1ccc2c(c1)OCCO2,"inconclusive: 22.4 µM [inhibitor, partial curve]"
9,Cc1ccc(-c2ccc(=O)n(CC(=O)NCc3ccc(F)cc3)n2)cc1,"inconclusive: 3.16 µM [inhibitor, single point]"
10,COc1ccc(/C(C)=N/NC(=O)CNC(=O)C2COc3ccccc3O2)c(OC)c1 (stereo not given),inactive
11,N#CCCN(Cc1cccnc1)C(=S)NC(=O)C1CC1,inactive
12,CC(=O)c1cnn(-c2c(Cl)cc(Cl)cc2Cl)c1C,inactive
13,O=S(=O)(Nc1ccccn1)c1cccc(S(=O)(=O)c2ccc(Cl)cc2)c1,"inconclusive: 31.6 µM [inhibitor, partial curve]"
14,Cc1nn2c3ccccc3nc2c2ccccc12,"inconclusive: 39.8 µM [inhibitor, single point]"
15,FC(F)(F)c1nc2ccccc2n2c(-c3ccc(Cl)cc3)nnc12,"inconclusive: 28.2 µM [inhibitor, partial curve]"
16,CN1/C(=C\C(=O)COC(=O)c2ccc(O)c(O)c2)C(C)(C)c2ccccc21,"inconclusive: 31.6 µM [inhibitor, single point]"
17,COc1cc(C2Nc3cccc4cccc(c34)N2)cc(OC)c1OC(C)=O,inactive
18,COc1ccc2cc3cc(C(=O)NCCc4ccc(OC)c(OC)c4)oc3nc2c1,"inconclusive: 15.8 µM [inhibitor, partial curve]"
19,Cc1cccc(-n2c(Cc3cc(=O)[nH]c(=O)[nH]3)nnc2SCC(=O)NCC2CCCO2)c1 (stereo not given),inactive
20,CCC1=NN2C(=N)/C(=C\c3ccc(OCc4cc(=O)n5nc(CC)sc5n4)c(OC)c3)C(=O)N=C2S1,"inconclusive: 8.91 µM [inhibitor, partial curve]"
21,CCN(CC)C(=O)Oc1ccc(Cl)c2cccnc12,"inconclusive: 35.5 µM [inhibitor, partial curve]"
22,Cc1c(Cl)c(=O)oc2cc(OC(C)C)ccc12,"inconclusive: 31.6 µM [inhibitor, partial curve]"
23,CN(C)c1ncc(S(=O)(=O)c2ccc(Cl)cc2)c(-c2ccccc2)n1,"inconclusive: 39.8 µM [inhibitor, single point]"
24,N#CC1=C(N)N(c2ccc(F)cc2)C2=C(C1c1ccc(O)cc1)S(=O)(=O)CC2 (stereo not given),active: 20 µM

row,Compound,Potency
1,COc1ccccc1N1CCN(C/C=C/c2ccc(N(C)C)cc2)CC1,"inconclusive: 35.5 µM [inhibitor, single point]"
2,C=C(C)COc1ccc(-c2n[nH]c(C)c2-c2ccc(OC)c(OC)c2)c(O)c1,"inconclusive: 35.5 µM [inhibitor, single point]"
3,O=C(NCCOc1ccc(Cl)cc1)C1CC(=O)N(c2ccc(F)cc2)C1 (stereo not given),inactive
4,COc1ccccc1NC(=O)CC1Nc2ccccc2NC1=O (stereo not given),"inconclusive: 35.5 µM [inhibitor, single point]"
5,CCN(CC)c1ccc(NC(=O)CSc2nc(C)cc(=O)[nH]2)cc1,inactive
6,CC1CCN(CCCn2c(=S)[nH]c3c(sc4ccc([N+](=O)[O-])cc43)c2=O)CC1,inactive
7,CC1(C)Cc2nc(NCCN3CCOCC3)c(C#N)cc2CO1,"inconclusive: 35.5 µM [inhibitor, single point]"
8,Cc1ccc(C(=O)Nc2nc(-c3cc(Cl)sc3Cl)cs2)cc1,"inconclusive: 35.5 µM [inhibitor, single point]"
9,O=S1(=O)c2ccccc2N=NN1Cc1cc(Cl)cc(Cl)c1,inactive
10,O=C(CN1CCOCC1)Nc1cccc(Br)c1,inactive
11,CCCCN(CC)C(=O)Cn1cnc2ccc(S(=O)(=O)N3CCC(C)CC3)cc2c1=O,inactive
12,Cc1ccc(OCCCC(=O)Nc2ccc(N3CCOCC3)cc2)c(C)c1,"inconclusive: 35.5 µM [inhibitor, single point]"
13,O=C(O)C1OC(C(=O)O)C2C1C(F)(F)C2(F)F (stereo not given),"inconclusive: 28.2 µM [inhibitor, single point]"
14,CC(C)NC(=O)c1cc2c(-c3ccc(Cl)cc3)nn(C)c2s1,active: 8.91 µM
15,CCCn1c(-c2ccc(F)cc2)nc2c(NCCCCN(CC)CC)nc(C)nc21,"inconclusive: 28.2 µM [inhibitor, partial curve]"
16,CC(=O)Oc1ccc(Cl)cc1/C=C/c1cc(OC(C)=O)c2ccccc2n1,"inconclusive: 35.5 µM [inhibitor, single point]"
17,CC(NC(=O)c1ccccc1NS(C)(=O)=O)c1ccccc1 (stereo not given),"inconclusive: 31.6 µM [inhibitor, partial curve]"
18,CNC(=O)Nc1cccc(-c2cc(-c3c(Cl)cccc3Cl)no2)c1,"inconclusive: 39.8 µM [inhibitor, single point]"
19,C[N+]12CCCCC1C(COC(=O)c1ccc3c(c1)OCO3)CCC2 (stereo not given),active: 22.4 µM
20,Cc1cc(OC(C(=O)O)c2ccccc2)c2c(C)c(Cc3ccccc3)c(=O)oc2c1 (stereo not given),"inconclusive: 28.2 µM [inhibitor, partial curve]"
21,COc1ccc(C(=O)Nc2ccc(S(=O)(=O)N3CCCCC3C)cc2)c(OC)c1OC (stereo not given),"inconclusive: 35.5 µM [inhibitor, single point]"
22,O=C(Nc1cc(C(F)(F)F)ccc1Cl)C(Sc1n[nH]c(=O)[nH]c1=O)c1ccccc1 (stereo not given),inactive
